The results in this text go back to the supplement of paper PMC8183993.

Several values for one entry are separate records, joined by “and”; a condition that tells them apart may be missing. Equal entries are not always repeated. Structures can show the parent of a compound that is named as a salt. ± gives the standard deviation of the averaged measurements. The full ranking holds about 3,200 compounds; the median of “nuclei count (viability) relative to DMSO” is about 99, and the lowest 2% start at about 16. The list shows a part of the results.

The experiment concerns U2OS. Put plainly: nuclei count (viability) relative to DMSO (% of DMSO); higher = more viable cells. As to conditions: 10 µM; 24 h. As for the experimental part: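 Primary image-based screen in U2OS cells: compounds at 10 uM for 24 h, then a 1 h o-propargyl-puromycin (OPP) pulse, click labelling, and high-throughput microscopy. Mean cytoplasmic OPP intensity and nuclei count were normalised to DMSO wells within each plate (DMSO = 100) and averaged over triplicate plates.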
With `C[C@@H]1C[C@@H]([C@H](O)CC2CC(=O)NC(=O)C2)C(=O)[C@@H](C)C1` [Cycloheximide], the nuclei count is 41.8 ± 9.8.
Regarding `O=C(O)c1nn(Cc2ccc(Cl)cc2Cl)c2ccccc12` [Lonidamine], the nuclei count amounted to 95.1.
`Cc1cc(C(C#N)c2ccc(Cl)cc2)c(Cl)cc1NC(=O)c1cc(I)cc(I)c1O` (stereo unspecified) [Closantel] gave a nuclei count of 88.
The compound `CC(C)(C)c1cc(C=C(C#N)C#N)cc(C(C)(C)C)c1O` [Tyrphostin 9 (SF 6847)] had a nuclei count of 65.1.
In turn, `CN1[C@@H]2CC[C@H]1C[C@@H](OC(=O)c1cc(Cl)cc(Cl)c1)C2` yielded a nuclei count of 111.
In turn, `NC(C(=O)O)c1nn[nH]n1` (racemic) [(RS)-(Tetrazol-5-yl)glycine] displayed a nuclei count of 105.
The compound `COc1ccc(CC2NCCc3cc(OC)c(OC)cc32)cc1OC` (stereo unspecified) [Tetrahydropapaverine HCl] yielded a nuclei count of 100.
As for `CCCCCC[C@H]1C(=O)O[C@H](C)[C@H](NC(=O)c2cccc(NC=O)c2O)C(=O)O[C@@H](C)[C@@H]1OC(=O)CC(C)C` [Antimycin A], the nuclei count was 107.
In turn, `c1ccc(C2CNCc3ccccc32)cc1` (stereo unspecified) [4-Phenyl-1,2,3,4-tetrahydroisoquinoline hydrochloride] registered a nuclei count of 103.
In turn, `c1ccc2c(c1)OCC(C1=NCCN1)O2` (stereo unspecified) [Idazoxan hydrochloride] displayed a nuclei count of 72.3 ± 2.1.
`CCC[C@@H]1CC2=CC(=O)CC[C@]2(C)[C@H]2CC[C@@]3(C)[C@@H](CC[C@@]3(O)CCC(=O)O)[C@H]12` had a nuclei count of 104.
In the case of `Cc1nnc2n1-c1sc(CCC(=O)N3CCOCC3)cc1C(c1ccccc1Cl)=NC2`, the nuclei count was found to be 102.
`c1ccc([C@@H]2C[C@H]2NC2CCNCC2)cc1` showed a nuclei count of 103.
On to `CC[N+]1(C)CCCC(OC(=O)C(O)(c2ccccc2)c2ccccc2)C1` (stereo unspecified) [Pipenzolate bromide], for which the nuclei count came out at 101.
Compound `C/C=C(/C)C(=O)O[C@H]1C(C)=C2[C@H]([C@@H]1OC(=O)CCCCCCC)[C@@](C)(OC(C)=O)C[C@H](OC(=O)CCC)[C@@]1(O)[C@H]2OC(=O)[C@@]1(C)O` [Thapsigargin] came in with a nuclei count of 29 ± 23.
For the compound `COC1(C[S@+]([O-])c2ccccc2)CCN(CCc2c[nH]c3ccc(F)cc23)CC1`, the nuclei count was found to be 97.2.
For the compound `CC1C=CC=CCCC=CC=CC=CC=CC(OC2OC(C)C(O)C(N)C2O)CC2OC(O)(CC(O)C(O)CCC(O)CC(O)CC(O)CC(=O)OC(C)C(C)C1O)CC(O)C2C(=O)O` (stereo unspecified) [Nystatin (Mycostatin)], the nuclei count was found to be 105.
In the case of `C[C@]12CC[C@H](O)CC1=CC[C@@H]1[C@@H]2CC[C@]2(C)C(=O)CC[C@@H]12` [Dehydroepiandrosterone (DHEA)], the nuclei count was found to be 114.
As for `COc1cc2c(c(OC)c1OC)-c1ccc(OC)c(=O)cc1[C@@H](NC(C)=O)CC2` [Colchicine], the nuclei count is 17.7 ± 1.8.
To `CC[C@@H](CO)NC(=O)[C@@H]1C=C2c3cccc4c3c(cn4C)C[C@H]2N(C)C1` [Methysergide maleate] belongs 101; to `N#C[C@H](O[C@@H]1O[C@H](CO[C@@H]2O[C@H](CO)[C@@H](O)[C@H](O)[C@H]2O)[C@@H](O)[C@H](O)[C@H]1O)c1ccccc1` [Amygdalin], 101; to `CC(=O)N1CC[N+](C)(C)CC1` [4-Acetyl-1,1-dimethylpiperazinium iodide], 103.
`CN1C[C@H](CNC(=O)OCc2ccccc2)C[C@@H]2c3cccc4c3c(cn4C)C[C@H]21` [Metergoline] yielded a nuclei count of 99.6 ± 8.9.
`O=[N+]([O-])c1ncc[nH]1` [Azomycin (2-Nitroimidazole)]: the nuclei count came to 105.
With `O=C(NCNC(=O)NC1C(=O)NC(=O)N1CO)NC1C(=O)NC(=O)N1CO` (stereo unspecified) [Imidurea], the nuclei count turned out to be 111.
As to `CC(=O)O[C@H]1CC[C@@]2(C)C(=CC[C@@H]3[C@@H]2CC[C@]2(C)C(=O)CC[C@@H]32)C1` [Dehydroisoandosterone 3-acetate], the nuclei count is 96.3.
`Oc1ccc2c3c1O[C@H]1[C@@H](O)CC[C@@]4(O)[C@@H](C2)N(CC2CCC2)CC[C@]314` [Nalbuphine hydrochloride] registered a nuclei count of 105.
With `O=C1CN=C(c2cccc(Br)c2)c2oc3ccccc3c2N1`, the nuclei count was 78.5.
Compound `C[C@]12CC[C@H](O)C[C@H]1CC[C@@H]1[C@@H]2CC[C@]2(C)[C@@H](C3=CC(=O)OC3)CC[C@]12O` [Digitoxigenin] yielded a nuclei count of 18.4.
`CC(C)c1cc2c(c(O)c1O)[C@@]1(C(=O)O)CCCC(C)(C)[C@@H]1CC2` [Carnosic acid] yielded a nuclei count of 94.5.
`CC(C)c1cccc(C(C)C)c1O` [Propofol]: the nuclei count was determined as 104.
`CC12NC(Cc3ccccc31)c1ccccc12` (single isomer, unassigned; (+)) [(+)-MK 801 maleate]: the nuclei count worked out at 94.2.
Turning to `CCC(Oc1ccc(Cl)cc1)C(=O)OC1C[C@H]2CC[C@@H](C1)N2C` (stereo partly specified) [SM-21 maleate], the nuclei count came out at 103.
With `CCCN1CCC[C@@H]2Cc3n[nH]cc3C[C@H]21` [(-)-Quinpirole hydrochloride], the nuclei count is 109.
Turning to `C=C1C[C@@H]2[C@H](CC[C@]3(C)C(=O)CC[C@@H]23)[C@@]2(C)C=CC(=O)C=C12` [Exemestane], the nuclei count stood at 96.2 ± 2.1.
Compound `CC(=O)[C@H]1CC[C@H]2[C@@H]3CC[C@H]4C[C@H](O)CC[C@]4(C)[C@H]3C(=O)C[C@]12C` [Alfaxalone] displayed a nuclei count of 108.
To `CC(=O)c1c(O)c(C)c(O)c(Cc2c(O)c3c(c(C(=O)/C=C/c4ccccc4)c2O)OC(C)(C)C=C3)c1O` [Rottlerin] belongs 87.7.
To `C[C@H]1CNCCc2ccc(Cl)cc21` [Lorcaserin HCl] belongs 95.6; to `CC1=NN=C(c2ccc(N)cc2)c2cc3c(cc2C1)OCO3`, 84.8.
`Cn1c2c(c3ccccc31)CCNCC2` displayed a nuclei count of 102.
For the compound `CN1C(=O)CCS(=O)(=O)C1c1ccc(Cl)cc1` (stereo unspecified) [Chlormezanone], the nuclei count came out at 94.6 ± 11.
`O=P1(N(CCCl)CCCl)NCCCO1` (stereo unspecified) [Cyclophosphamide] came in with a nuclei count of 103.
On to `CCCN[C@@H]1CCc2c(OC)cccc2[C@@H]1C` [(+)-AJ 76 hydrochloride], for which the nuclei count stood at 102.
On to `C[C@]12COC(=O)C[C@@H]1CC[C@@H]1[C@@H]2CC[C@@]2(C)[C@H]1CC[C@]2(C)O` [Oxandrolone], for which the nuclei count was 88.1.
As for `CCOC(=O)c1ncn2c1CN(C)C(=O)c1cc(N=[N+]=[N-])ccc1-2`, the nuclei count amounted to 94.8.
As to `CCCN1CCO[C@@H]2c3cc(O)ccc3OC[C@H]21`, the nuclei count was 106 and 96.6.
